# Among all 150,000 compounds or so, about 540 (0.36%) showed an effect of 50% or more. The list shows a part of the results.
# Test system: Plasmodium falciparum
# Experiment: Primary screen in NF54 nanoGlo assay, in single point, at 2uM, 72h; a lower Z score goes with more inhibition
# Assay type: functional, Erythrocyte
# Details: timepoint 72 hour
SMILES,% Inhibition [%],Z score
CCOc1ccc([C@@H]2c3[nH]c4ccccc4c3CCN2Cc2cc[nH]n2)cc1,-7,0.9
CC(C#N)CNCCC(C)c1ccccc1 (stereo unspecified),40,-4.06
COc1cccc(-c2ccc(N3CCCN(C(=O)CN(Cc4ccccc4)C(=O)c4ccc(Cl)cc4Cl)CC3)nn2)c1,-9,1.07
COc1cccc(C(=O)N(Cc2ccc(C)cc2)c2cccc(CC(=O)Nc3ccc(F)cc3)c2)c1,-4,0.77
Cc1nccc(CNC(=O)C(C)(C)Oc2cccc(Cl)c2)n1,-7,0.98
Cn1nc(C(=O)N2CCCc3cc(S(=O)(=O)N4CCCC4)ccc32)ccc1=O,-4,0.42
CCCCc1nc(C)cc(NCCNC(=O)Nc2cn(C)nn2)n1,2,-0.3
CCc1c(C(=O)N2CCC[C@H]2c2ccc(C(N)=O)s2)[nH]c2ccccc12,-10,1.37
COc1ccc(OC)c(N(CC(=O)N[C@H](C)c2ccccc2)S(C)(=O)=O)c1,6,-0.95
O=C1CCCc2[nH]c(=O)c(C(=O)NCc3ccc(F)c(Cl)c3)cc21,-5,0.77
Cc1cc(CNc2[nH]ncc2C(=O)N(C)C)cc(C)c1O,-11,1.22
Cc1nn(C)c(Cl)c1CN1CCC[C@H]1C(=O)OCc1ccccc1,-10,1.73
CC(=O)c1c(C)[nH]c(C(=O)N2c3ccncc3CC[C@@H]2CO)c1C,-15,1.77
O=C(CN1C(=O)COc2cc(Br)ccc21)Nc1cccc2ccccc12,32,-0.82
C[C@@H]1NC(C)(C)CC(C)(C)c2ccccc21,-2,0.15
Cc1cc(N2CC[C@H](O)C2)n2nc(C)cc2n1,-9,0.99
Cc1cc(=O)cc(C(=O)NCc2ccc3nonc3c2)[nH]1,-3,0.55
CS(=O)(=O)CCC(=O)N(CCO)Cc1cccs1,-4,0.68
CCc1nccn1C[C@H](C)NCc1ccc2nsnc2c1,3,-0.48
NCCNc1nc(-c2ccc(Br)cc2)nnc1-c1ccccc1,-16,1.89
Cn1c(CCNC(=O)C2(C)COC2)nc2cc(F)ccc21,6,-1.35
O=C(CN1CCC2(CC1)C[C@@H]2C(=O)N1CCCCC1)Nc1nccs1,-14,2.59
C[C@H]1Cc2ccccc2C(CCc2ccccc2)=N1,-4,0.38
